# Some of the results follow.
# B1: chr9:44212477:44212478:-_ENSMUSG00000032112_ENSMUST00000034623|perfect_dup|motif|central (ssRNA)
# RNA: GGGAGUUCUACAGUCCGACGAUCUGGAUUCUUGAGGGCAAAGUCUGAGUAAAUCUCAUAAAUCUUUCGGAGAAGAGAAUCGGUUCCAGCUUGCCUAGGAUCUGCUAGAACCACAAACUUGAUCCCUGUCAGUGUCUGGUAGCACAACAGAGGAUUGAGCAUCA
# B2: 110835611_110835731_665_3pUTR_ENSG00000164211_ENST00000296632|human|control|control (ssRNA)
# RNA: GGGAGUUCUACAGUCCGACGAUCAAGUUGGUUAAAGUGCUUGCCAUGGCUGUAUCUACCGCAGACUGAGGAAUCAUCCCACGCAGAUCUGUCUGAAUAUAUCCUGUCAAAAGACUCUGGUUUGGGUUGUCUUUAAGUGGAACACAACAGAGGAUUGAGCAUCA
# B3: 120254907_120255027_511_CDS_ENSMUSG00000062822_ENSMUST00000026519|mouse|control|control (ssRNA)
# RNA: GGGAGUUCUACAGUCCGACGAUCUUCAAAGAGAAAUUCAGAGCCGCAAGGAGAGAGCUGCAGCGUGGACCCACAAGCGUAGUGCACUUGGACGGAAUCAUCCUCAUAGAGCACCAUUCGCACCUCAGCUGCCAUUCCCAUGCCCAACAGAGGAUUGAGCAUCA
# B4: chr12:39763582:39763583:-_ENSG00000139116_ENST00000544797|hu_mus|hu_hu_hu_mus_False|28_28 (ssRNA)
# RNA: GGGAGUUCUACAGUCCGACGAUCCUCUAGGAACUGGGCAUUCACUUUGAAUUCAGGAGGGGGCAGCCCGUUUUUAAUCGCUGAGGUCUUUUUCUCAUCAAUACUCUUAAAAAGGUGUCUAACAGCACGAGAGAUGAUGCCCUGCAACAGAGGAUUGAGCAUCA
# B5: chr14:61435135:61435136:+_ENSG00000020426_ENST00000539616|hu_hu|motif|central (ssRNA)
# RNA: GGGAGUUCUACAGUCCGACGAUCUAAAUACUUUAACACAGCUGCUAGUGGAAGGACUGUGUUGUGCAGCUGCACAUAGCGGUAAUUUUAUAAGUCUGCUUUACUUUUGCUAGCUCCCUGGUUCAGCUCCAAGGUCCAAAUCUUCAACAGAGGAUUGAGCAUCA
# B6: chr2:9570881:9570882:+_ENSG00000119203_ENST00000238112|hu_mus|hu_hu_hu_mus_False|8_98 (ssRNA)
# RNA: GGGAGUUCUACAGUCCGACGAUCACUUGUCUUCUGAAGAAACCAGGGCAGGGCUCCACAGUGAUCCAAAUGGAAAUGACUGAUCAACAGAAGGUCGAUCUCAGCUGGGUCGAUAAGGUCAAUGUAAGGAAGAGCAUCCAUUCCCAACAGAGGAUUGAGCAUCA
# B7: chr3:145257603:145257604:+_ENSMUSG00000074182_ENSMUST00000098534|mus_mus|FALSE|FALSE (ssRNA)
# RNA: GGGAGUUCUACAGUCCGACGAUCAUCGAUGUAAGGCUUUAGAAUUUCAUUAAUAGUUUUAUCAUCUGGUACUCUUUUUUCUAUGUACUCUGCUUGACUCUGAGGAAACUGGAGCUUGACAUGCCAACAAAACUGCUGCUUCCUCAACAGAGGAUUGAGCAUCA
# B8: chr11:4127340:4127341:+_ENSG00000167325_ENST00000300738|hu_mus|FALSE|FALSE (ssRNA)
# RNA: GGGAGUUCUACAGUCCGACGAUCGGCAUAGUCAGGGUGCUUCGUGGUCAAGGUCGCGGCUGUCUCAGCAGCCAGGGUGUCCAGUUCCACUGUGGUGACCCCACUAUAUAGGCCUUGGAUUACUUUCAUGGUGAUCUGAGCAGGCAACAGAGGAUUGAGCAUCA
# B9: chrX:53230792:53230793:-_ENSG00000126012_ENST00000404049|hu_hu|FALSE|FALSE (ssRNA)
# RNA: GGGAGUUCUACAGUCCGACGAUCCAGCAGGGCCUUUCGUAGACGCCGCUCUUCUUGCACCAUGAUGAACAUCUCCUUAUGCACAGCUGCCGCCAGGUUCAGGUCUAGCUUCUCUGGGCAGGCAGCCAUCUUGCAGAUAAGCUCCAACAGAGGAUUGAGCAUCA
# B10: chr19:34925787:34925788:+_ENSG00000126261_ENST00000246548|perfect_dup|FALSE|FALSE (ssRNA)
# RNA: GGGAGUUCUACAGUCCGACGAUCGAGAUACCCAGCAGUCCCGCUCUCAAUGAGAGGCACAUCAGCGGCCAGACACAUCCUAUUCACGUGGUUUCGUGCAGCUCUGUUAUCUAAUGCAUUCAUGACCAAUAUAAACUGUCGAAACAACAGAGGAUUGAGCAUCA
# B11: chr13:36049296:36049297:-_ENSG00000180660_ENST00000379919|hu_mus|FALSE|FALSE (ssRNA)
# RNA: GGGAGUUCUACAGUCCGACGAUCCCACGUUUGUUUAGCAGCGUUUUCCAAGGCCGAGUGGGGUUUGCCUUGAAACAGAUCUAAGUUCGGUAAGAAGUAAUGGGGACACCGCCGGCACUGCAGGCAUGAGAUGAGCUGCAGAAGCAACAGAGGAUUGAGCAUCA
# B12: chr2:181922443:181922444:+_ENSG00000170035_ENST00000410062|hu_hu|FALSE|FALSE (ssRNA)
# RNA: GGGAGUUCUACAGUCCGACGAUCCACACCACCUUCAUAUACAGAACCCGGUGGACCAAGUAUAGUUGAUCUCCAUUCAUAAAUGUUAUCUCCUUUAGGCCCAGCACUGCAAUUAGGAGGAGGAUCAAGGGUUAUUUCAGCUAGCAACAGAGGAUUGAGCAUCA
# B13: chr20:33096620:33096621:+_ENSG00000078747_ENST00000374864|hu_hu|FALSE|FALSE (ssRNA)
# RNA: GGGAGUUCUACAGUCCGACGAUCGUCUUAAACUCCUUAACAAUAAUUAAAUAUAACUGAAGUUGUUGGAUUAUGAUAAAACUAUAAAGCAUCAAUUAUAUAGCGGAACAUAUAAAAAUCACCAGAGACAUCUUUAGAUGAAUUCAACAGAGGAUUGAGCAUCA
# B14: chr3:10015032:10015033:+_ENSMUSG00000027533_ENSMUST00000029046|mus_mus|mus_mus_mus_hu_True|48_48 (ssRNA)
# RNA: GGGAGUUCUACAGUCCGACGAUCGUUUUUACCAUCACAAGUGAUGAUACAAUCUGGCUUGGCCAUUGCGCCCAUUUUUCGCAAAGCCAGUCCUACUCCUAGCUCCUUCAUGUAUUCAUCAAAGCCUUUGCUGUCCACCAGGCGCAACAGAGGAUUGAGCAUCA
# B15: chr5:17772112:17772113:-_ENSMUSG00000057614_ENSMUST00000074694|mus_mus|motif|central (ssRNA)
# RNA: GGGAGUUCUACAGUCCGACGAUCAAGUCUAAGAUCCUGUGUCCUGAAAAAAUCUGGAGAUUUGGUUUCUUAAAUAAAUCGGAACGGGAGUCAGAACAUCAUGCACUCUGUAAAUAAAUUCUAAUGCACUCAAUGCUUAAAUAACAACAGAGGAUUGAGCAUCA
# B16: 65476360_65476480_3758_3pUTR_ENSG00000153914_ENST00000334121|human|control|control (ssRNA)
# RNA: GGGAGUUCUACAGUCCGACGAUCUCUUCCAAAAUUUUAAUGUACACAGUGACAAAAAGGAAAAACAAACAAAAAAAACAGUAAUUCUGAACACAUGAAGAGUGAUUAAGCAGCUUCAUAAUCAAAUCAGGCUUCAUUACUUGCCAACAGAGGAUUGAGCAUCA
# B17: chr17:17165348:17165349:-_ENSG00000141030_ENST00000268717|hu_mus|FALSE|FALSE (ssRNA)
# RNA: GGGAGUUCUACAGUCCGACGAUCUAUUUGAGAGGUGUAUUUAGGCAGCUGUUGUACUUUGCCAAGUAAUAUCAAAGACACUAGAAUAUACUUUUUAUAUGAUUCCAACAUGAUAUGGCUGACGGCCAUGGCAGGAGUAGUUAUCAACAGAGGAUUGAGCAUCA
# B18: chr7:86439405:86439406:+_ENSMUSG00000039202_ENSMUST00000037315|mus_mus|FALSE|FALSE (ssRNA)
# RNA: GGGAGUUCUACAGUCCGACGAUCUUCCUUGAAGGGGUGUCCAGGUGGGCCAAUCAGAUCUGAUCUUAUAUUCAAAUUAACCUAAAAGCUUCUCUCAUUGACUCCAGCAGUCCAACCCGCCCGGAGUCCGGUUCCCGCAGCUCCCAACAGAGGAUUGAGCAUCA
# B19: 149508160_149508280_6036_3pUTR_ENSMUSG00000003452_ENSMUST00000086829|mouse|control|control (ssRNA)
# RNA: GGGAGUUCUACAGUCCGACGAUCUUCAUGCUCCUAAGCACUUAGGCCAAAAGCAAUUUAUUGCUUCUUUUUAUUUUACUAUUAUGCUUUAAUGAAAAUCCUUAGUGAAAAAGCAUUUCUGCAUACUAAUUCAUCUAUUCAGCUCAACAGAGGAUUGAGCAUCA
# B20: 107906761_107906881_4198_3pUTR_ENSMUSG00000034636_ENSMUST00000043616|mouse|control|control (ssRNA)
# RNA: GGGAGUUCUACAGUCCGACGAUCGAAUCUGAGCAACCAUCUUGGGUAAAAAUGUAUCGUAUAGCUCUUAAAAUUCCUUGAACCAAUGAAGUAAGAAAUAAACCAUAGUUUUAUAUGGCUUUUUGAUAAUUCUAUGUGUCUGUUCAACAGAGGAUUGAGCAUCA
# B21: 97770756_97780716_632_CDS_ENSG00000164715_ENST00000297293|human|control|control (ssRNA)
# RNA: GGGAGUUCUACAGUCCGACGAUCGGCAACUUGAGACUUCAAUCCCUCUACAGAAGGCUGGAAUUGCGAGGGAGCUGGGAGUGAAAUAUUUGGUACUGAAAGUGUGAAGACCUCUGCUGGGGACUGAACAGAGGGAGUGUCUUCCAACAGAGGAUUGAGCAUCA
# B22: chr13:95058138:95058139:+_ENSG00000183098_ENST00000377047|hu_mus|FALSE|FALSE (ssRNA)
# RNA: GGGAGUUCUACAGUCCGACGAUCAUUAAACCUUUAACAUUAAAUCAGUCUACAAAACCAUACAACGGGCAGUGACAAUGACUAGGAAGGGCACGUUAAAAACAUUUUGUCCAUGUCUGUGUAAGAUGACCAACGAUGUGGCUUCAACAGAGGAUUGAGCAUCA
# Biological target: T1, UNK ZnF1-3 (human, UniProt Q9C0B0 31-174)
# T1 sequence: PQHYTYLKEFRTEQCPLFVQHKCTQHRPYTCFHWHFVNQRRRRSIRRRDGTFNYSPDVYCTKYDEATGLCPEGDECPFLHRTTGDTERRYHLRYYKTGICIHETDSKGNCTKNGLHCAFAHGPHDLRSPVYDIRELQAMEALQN
# Test: nsRBNS (natural sequence RNA bind-n-seq); RBNS binding buffer (assumed for nsRBNS): 25 mM Tris pH 7.5, 150 mM KCl, 3 mM MgCl2, 0.01% Triton X-100, 500 ug/ml BSA, 20 U/ml SUPERase-In, 4 C; UNK is unkempt and MSI1 is Musashi-1; names of the RNAs are library labels; protein concentration not given here; high values mean tight binding
row,Binder,binding signal [enrichment R]
1,B1,0.621
2,B2,0.949
3,B3,1.52
4,B4,1.74
5,B5,0.672
6,B6,2.2
7,B7,0.958
8,B8,0.97
9,B9,0.643
10,B10,0.474
11,B11,1.23
12,B12,1.46
13,B13,1.42
14,B14,0.61
15,B15,1.37
16,B16,1.94
17,B17,0.98
18,B18,0.922
19,B19,0.656
20,B20,0.648
21,B21,1.96
22,B22,1.72

# Source: publication PMC12136788
